Results reported in PubChem BioAssay AID1508642 (National Center for Advancing Translational Sciences (NCATS), 2021).
Hit rate of the full screen: of about 43,000 compounds, about 200 (0.47%) were called active. About 12% were inconclusive and are not listed. Calls follow the shape of the dose curve; as a rule, active = well fitted cell-killing curve with a large enough effect; inconclusive = small, poorly fitted or top-dose-only effect, or effect the other way; inactive = flat fitted curve, though single readings scatter. The list shows a part of the results.

assay: Cell viability qHTS assay in S16 Pmp22-F2sN cells; conditions: S16 Pmp22-F2sN Schwann cells (luciferase reporters placed in the Pmp22 gene) viability, CellTiter-Glo, 24 h; series mostly up to 57.5 µM; activity change, negative = cytotoxicity: at the top concentration; also: nearly all actives have a fitted effect of over 65% in size
Method in brief: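 CellTiter-Glo counter-screen, qHTS, 1536-well. Cells: S16(c9) Pmp22-F2sN, 500-1,000/well in DMEM + 10% FBS. Cpd 23 nL pin transfer, 24 h, 37C/5% CO2. Read: luminescence, CCD imager.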
% is scaled to controls: 0 for no effect and ±100 for the full control effect.

Row | SMILES | activity change, negative = cytotoxicity
1 | CCc1ccc(-n2c(=O)c3cccnc3n2CC(=O)NCc2ccc(C)cc2)cc1 | inactive: 5.28%
2 | COc1ccc(CCNC(=O)CSc2n[nH]c(-c3ccccc3Cl)n2)cc1OC | inactive: 12%
3 | COc1ccc(Cl)cc1NC(=O)CSC1=Nc2ccccc2C2=NC(CC(=O)NCc3cccs3)C(=O)N12 (stereo unspecified) | inactive: -9.02%
4 | O=C(NCc1ccccc1)c1cnc(N2CCCCC2)c2ccccc12 | inactive: 12.2%
5 | CCOC(=O)c1cc2c(=O)n3ccccc3nc2n(Cc2ccco2)c1=NC(=O)c1ccc(OCC)cc1 | inactive: -3.21%
6 | Cn1c(=O)n(CCCc2ccccc2)c(=O)c2c1nc1n2CCN1c1ccc(F)cc1 | inactive: -14.7%
7 | Cc1nn(C(=O)c2ccc(Br)cc2)c(C)c1Sc1ccccc1 | inactive: -8.08%
8 | COc1cc(OC)c(N(C)C(=O)c2sc3nc4n(c(=O)c3c2C)CCCC4)cc1Cl | inactive: -1.92%
9 | CCCCOC(=O)c1ccc(NC(=O)c2cnc3ccc(C)cn3c2=O)cc1 | inactive: -5%
10 | CCn1c(=O)cc(OCC(=O)N2CCN(c3ccc(F)cc3)CC2)c2ccccc21 | inactive: 9.4%
11 | CCN(c1cccc(C)c1)c1ncnc2c1cnn2-c1cccc(Cl)c1 | inactive: 21.6%
12 | CC(C)NC(=O)CCN1C(=O)c2ccccc2Sc2ncccc21 | inactive: 10.4%
13 | O=C(NC1CC(=O)N(c2ccc(F)cc2)C1)C1CC1 (stereo unspecified) | inactive: 0.106%
14 | COc1ccc2oc(=O)c(-c3nc(-c4cccs4)no3)cc2c1 | inactive: 8.55%
15 | Cc1ccc(NC(=O)Cn2nnc(C(=O)NCc3ccc4c(c3)OCO4)c2N)cc1Cl | inactive: 1.44%
16 | CCc1ccc(NC(=O)Cn2cc(S(=O)(=O)N3CCCC3)c(S(=O)(=O)N3CCCC3)c2)cc1 | inactive: 2.5%
17 | CSc1nc2sc3c(c2c(=O)n1-c1ccccc1)CCC(C(C)(C)C)C3 (stereo unspecified) | inactive: 4.21%
18 | COc1ccccc1-c1noc(-c2ccc(NC(C)C)c([N+](=O)[O-])c2)n1 | inactive: -13.2%
19 | COc1ccc(Cn2c(=O)[nH]c3cc(C(=O)N4CCN(c5cc(Cl)ccc5C)CC4)ccc3c2=O)cc1 | inactive: 4.57%
20 | COc1ccc2[nH]cc(S(=O)(=O)c3ccc(C)c(C)c3)c(=O)c2c1 | inactive: -0.395%
21 | O=C(CCCCn1c(=O)c2ccccc2n(CC(=O)Nc2cccc(F)c2)c1=O)NCCc1ccccc1 | inactive: -0.607%

Row | SMILES | activity change, negative = cytotoxicity
22 | COc1ccc(-c2nn(-c3cccc(F)c3)c3c2cnc2cc(OC)c(OC)cc23)cc1 | inactive: -1.66%
23 | Cc1ccc(S(=O)(=O)NCCc2csc3nc(-c4ccccc4C)nn23)cc1 | inactive: 6.73%
24 | O=C(CSc1nc2ccsc2c(=O)n1Cc1ccccc1Cl)NCc1ccc(Cl)cc1 | inactive: 11.5%
25 | O=C(CSc1nc2ccccc2n1Cc1c(F)cccc1Cl)N1CCN(c2ccc(F)cc2)CC1 | inactive: 1.41%
26 | CCOc1cc(CNC(=O)c2ccc3nc(CCc4ccccc4)oc3c2)ccc1OC | inactive: -5.5%
27 | COc1ccc(NC(=O)CN2C(=O)C3(SCC(=O)N3c3cccc(OC)c3)c3ccccc32)cc1 (stereo unspecified) | inactive: 7.57%
28 | COc1ccc(N2CC(NC(=O)c3c(F)cccc3Cl)CC2=O)cc1OC (stereo unspecified) | inactive: 16.4%
29 | CCC(C(=O)N1CCN(c2ccccc2)CC1)n1nc(C)c2sc3ccccc3c2c1=O (stereo unspecified) | inactive: 0.644%
30 | Cc1ccccc1NC(=O)c1cnc2sc(N3CCCC3)nn2c1=O | inactive: 3.05%
31 | O=C(Nc1nnc(SCc2cc(=O)n3cc(Cl)ccc3n2)s1)c1cccc(F)c1 | inactive: 13.3%
32 | O=C(c1ccc2c(Cl)c3c(nc2c1)CCCC3)N1CCN(c2ccccc2F)CC1 | inactive: 3.92%
33 | COc1cccc(N2CC(NC(=O)C3CC3)CC2=O)c1 (stereo unspecified) | inactive: 2.78%
34 | CC1=C(C(=O)Nc2cccc(C(F)(F)F)c2)C(c2ccccc2)n2ncnc2N1 (stereo unspecified) | inactive: 12.7%
35 | CCc1cccc(C)c1NC(=O)CCn1nc(C)c2c(C)n(-c3ccccc3)nc2c1=O | inactive: -2.87%
36 | COc1ccc(NC(=O)Cc2noc3ccc(C)cc23)cc1Cl | inactive: -9.36%
37 | CCOC(=O)c1c(S(=O)(=O)N2CCC(C(=O)Nc3cccc(C)n3)CC2)c(C)n(C)c1C | inactive: 11.5%
38 | CCC(C)NC(=O)Cn1c(=O)ccc2cc(S(=O)(=O)N3CCCC3)ccc21 (stereo unspecified) | inactive: 16.8%
39 | CCCN(C(=O)c1cc2c(=O)oc3ccccc3c2s1)c1ccccc1C | inactive: -1.11%
40 | Cc1ccc(NC(=O)Cn2nnc(C(=O)NCCc3ccccc3)c2N)cc1Cl | inactive: -0.793%
41 | CCc1ccc2c(c1)c(=O)c(S(=O)(=O)c1ccccc1)cn2CC(=O)Nc1ccc(OC)cc1 | inactive: 2.7%
42 | COCC(=O)N1c2nc(-c3ccco3)nn2C2(CCCCC2)[C@@H]2CCCC[C@@H]21 | inactive: -9.94%

Row | SMILES | activity change, negative = cytotoxicity
43 | CCOc1ccc2c(c1)c(=O)c(C(=O)c1ccc(CC)cc1)cn2CC(=O)Nc1ccccc1C | inactive: -4.33%
44 | Cc1ccc(C)c(N2CCN(c3nc4c(S(=O)(=O)c5ccccc5)nnn4c4ccc(Cl)cc34)CC2)c1 | inactive: 7.69%
45 | Cc1cccc(NC(=O)C2CCCN(c3nc4ccccc4s3)C2)c1C (stereo unspecified) | inactive: 12.8%
46 | CCOC(=O)C1CCCN(C(=O)Cn2nc(CC)n3c(cc4occc43)c2=O)C1 (stereo unspecified) | inactive: 21%
47 | CC(=O)c1ccc(N2C(=O)N(Cc3cc(C)ccc3C)c3ccccc3S2(=O)=O)cc1 | inactive: 24%
48 | O=S(=O)(Nc1ccc(Cl)cc1)c1cccc(S(=O)(=O)c2ccc(Cl)c(Cl)c2)c1 | inactive: 2.59%
49 | Cc1ccc(CCNC(=O)c2ccc(CS(=O)(=O)Cc3ccccc3F)o2)cc1 | inactive: -0.502%
50 | CCOc1ccccc1NC(=O)CN1C=NS(=O)(=O)c2ccccc21 | inactive: 3.62%
51 | COc1cccc2cc(-c3nc(-c4ccc(C)cc4)c(C)s3)c(=O)oc12 | inactive: 13.5%
52 | Cc1ccc(C(=O)Nc2ccc3nc(N4CCCCC4)cc(C)c3c2)cc1F | inactive: -23%
53 | Cc1ccc(NC(=O)CCNS(=O)(=O)c2ccc3c(c2)CCCC(=O)N3)cc1 | inactive: 13.4%
54 | COc1ccc2c(c1)c1c(c(=O)n(-c3ccccc3C)c(=O)n1Cc1c(F)cccc1Cl)n2C | inactive: -3.03%
55 | CCOC(=O)C1(C)C=C(Nc2ccc(C(=O)O)cc2)C(=O)N1c1ccc(C(=O)O)cc1 (stereo unspecified) | inactive: -5.6%
56 | CCCCN(C)C(=O)Cn1c(SCC(=O)Nc2ccc(C)c(C)c2)nc2ccccc21 | inactive: -17.7%
57 | Cc1nc2ccccc2n1CCc1nc2c3ccccc3nc(SCc3ccc(F)cc3)n2n1 | inactive: 10.5%
58 | CCOC(=O)c1c(C)oc2nc(C)nc(NCC3CCN(Cc4cccc(Cl)c4)CC3)c12 | inactive: -0.0664%
59 | Cc1cc(C)c(OCC(=O)N(Cc2cccc(F)c2)Cc2ccco2)c(C)c1 | inactive: -13.9%
60 | CC(=O)N1CCc2cc(S(=O)(=O)NC(Cc3ccccc3)C(=O)Nc3ccc(Cl)cc3)ccc21 (stereo unspecified) | inactive: -5.21%
61 | CCc1nn(CC(=O)N2CCN(c3cccc(C(F)(F)F)c3)CC2)c(=O)c2cccn12 | inactive: -4.83%
